Data taken from the supplement of paper PMC10126150.
Values marked as one replicate rest on one cluster of the flow cell; about a third of the high ones do not repeat.

Tested on: ATP
Test: switch fluorescence ratio, 500 uM ATP over buffer (Cy3 cluster intensity, sum of 5 cycles each) (fold (ratio)); higher = stronger signal-on switching upon ATP binding; sequences stand for … in TCGTCGGCAGCGTCAGATGTGTATAAGAGACAGTTTTTTTTTTTTTTTTTTTTTTTTT…TC
Conditions: aptamer strand: ATP DNA aptamer (quencher-CACCTGGGGGAGTATTGCGGAGGAAGG + anchor), 100 nM annealed; ATP concentration: 500 uM; one replicate
In short: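 The quencher-labelled ATP aptamer, at 100 nM, was annealed to Cy3-labelled switching-strand clusters on a modified Illumina MiSeq flow-cell. The clusters were imaged in selection buffer, then after 15 min with 500 uM ATP at 22 °C, and this buffer/ATP cycle ran five times with NaOH stripping and re-annealing between runs. Per-cluster fluorescence ratios, summed target-cycle over summed buffer-cycle Cy3 intensity, were averaged per switch-domain sequence. Clusters outside 100-1000 RFU were excluded.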
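Note: ATP exposure 15 min at 22 °C before imaging.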

Sequence	switch fluorescence ratio
ATCAGAGGGC	0.982
GAACCCAGA	1.05
AAATCCACCG	1.13
ACAAGCCAAA	0.979
GAGGGGGTAC	0.974
ATGTTTTGGT	0.975
ATTACACAAT	1.04
AACGGTTTG	0.954
GTGTGTATTT	0.994
GCTTGCTACG	1.14
AGGAACTTCG	1.01
GGAGCCAAGC	1.02
GGGCTAATAT	1.04
TTCTTCAGCT	1.02
AAAAGAACTT	1
CCTGTTCCGT	0.952
ATACCGAAAC	1.15
TTCGATCGAG	0.987
GCTTTCGGAG	1.48
ACTAACGGTT	1.33
AGCCCGAGGT	1.03
GGAACAATGG	1.03
TGAATAATGC	0.953
TCGGCGGAA	1.1
TTACTGAG	1.04
CTGACTGGGC	1.26

Sequence	switch fluorescence ratio
AAAAGCCTAA	1.04
TGCCTCACAC	1.1
ACTCCCCCGG	3.39
CGCGGCAGCC	0.989
GTGACTTCAT	0.999
GAAGGCGCCA	0.966
ATTTGCAACA	0.994
CTGTTCGCTC	1.29
GCCTGAACCG	1.22
TCACAGGGAC	1.09
CAGGTAGGG	1
TATCGCGAGA	1.01
TTCGACCACG	0.984
CATTGGACAG	1.01
TACACGGGGG	1.07
GGATGGTGAA	0.992
AAATTTCGCA	1.03
TTTGGCGCCG	0.964
GGATGGTTAA	0.965
TCCCAATATT	1.45
AACGCTTGGC	1.04
GATGAGAAGA	1.03
TTCCGTGTGA	1.01
GTGAAAGGAT	1.02
AGTCGCTTCA	0.979
TACTGCGACC	1.31

Sequence	switch fluorescence ratio
ATCAGTACAA	1.09
TTTAGCAGTA	1.3
GAAAGATAAC	0.994
AGGATGGCTT	1.03
TGGGGTCTAA	0.957
TTCTCGTTC	1.02
GTCCGCCAGT	1.2
ATGTCCCACC	1.04
TTGCTTGGA	1.01
ATTATGCCAA	0.983
TAGTTAAAAG	1.01
ACCTGAAGTT	1.05
TATTATGTCC	1.01
CAGGTTGTGA	1
AGTCTCCAAT	1.03
AGTGGGTTAA	1.05
CCAGAGAAGT	1.03
TGGTTTGCGG	0.974
GGCGCATCCT	1.02
ATAAGCGAGC	0.993
TCGATGTACA	1.2
TTACTTTTCC	1.15
ATGGGCAGAC	1.21
AGGCCTTCCG	1.89
CTTGACAAGA	1
TTTGCAGCCA	0.974

Sequence	switch fluorescence ratio
GGGATACCTG	1
GTTATCGT	0.975
ACGCTGATCG	0.973
GGGTGCTCGA	1.01
ATTGATTT	1
CGGCGGCACA	1.05
GTAATTCTTT	0.98
ACGGGGATAG	1.07
ATGTAGTCGT	0.856
TCCTTTCTCT	1.18
GCACACTAAT	1.08
ATTGATGCAC	1.04
GTTTGTAGA	1.02
AAATCTTATG	1.01
GCCACGACAA	1.13
TGTGATCCTT	1.05
GTGGGCCGAC	0.946
AGAGCTGTGA	1
GACTTACTGA	1.15
CGCCAGCTGT	1.05
CACGTATCGC	1.11
CCCAGGAGAG	1.49
GCCTATCAGT	0.993
AGCACACG	0.981
TGAAGGTGTT	1.19
GAATTACGAC	1.26

Sequence	switch fluorescence ratio
AAATAACCAT	1.04
AGTTCAATGC	1.67
AACATTGTAT	0.96
CGTAGATAAC	1.04
TTGGTCCAGG	1.11
AGCGGGGTA	0.957
TTATGCGAGT	0.994
TACACGAAAT	1.12
GGCCCATCTT	0.939
TAAAATGCG	1.03
GTTTTTGTCT	0.979
GTTGTACATA	1.06
GAACGATGAT	1.07
TAAACTGGCA	1.04
TAATGACCCT	1.08
CGGTAATCTC	1.21
CGGTAGGCAG	0.969
GATAGCTTAT	1.02
CACCTCAATT	1.1
GCCTGAGTAT	0.989
GGCGGACTAC	1.24
GGTGAAAGAA	0.935
CTGCCATAA	1.33
GCATTGAACG	0.992
GTAGTTCGAT	1.03
GTGGGTCATG	1.02

Sequence	switch fluorescence ratio
CGAGGGATTA	1.06
TTAAGGGGCC	1.03
GGGGAGTAAT	1.03
CCGTCATCAC	4.46
TAACGCATTG	1.09
TAATGTCCAC	1.04
AAAGTCGAGA	0.982
TCGGTCTGCG	1
TGTTAATACC	0.97
ACTTTTCGTG	0.997
CCAAAAGAAG	1.02
ATCGGACGA	1.09
CTCCTCTCAC	1.97
GAGTACGTTT	1.02
ATATTGAATC	0.972
GACTTGCTGT	0.996
GTTAAATTGG	0.949
TCAATGATTA	1.03
TAACATAGTC	0.961
ATCATTCCTA	0.994
TTGATATATG	1.02
CTAGGGCAGT	1
TAGAGCATGA	0.951
GGGACCGATG	0.962
TATGAGTCGC	1
ATTAATACAG	1.03

Sequence	switch fluorescence ratio
GTGTACACCG	0.955
GCATTGGGCG	1.01
TGGTGCATTA	0.989
GGTAGGCACT	1.02
ACCGCTAAAG	1.34
ATTAGATTGG	1.01
GATGGATTTC	0.944
GCGTAGGATC	1.08
CCATATTGA	1
CCCCGATGTC	2.07
CGGACCAGTC	1
CATATGGCAG	1.01
GCCACCAGCC	1.07
GTTCGTTGGG	0.982
TATTCCTGCA	1.11
TTTGGTATTG	0.995
GAATCCCGGC	0.99
CTGGATACAG	1.01
TGGAAGTGTG	0.973
ATGTTGTATG	1
GCGTACCAAG	1.02
TACGTAGTCG	1.05
CAAGTTCGGA	1.01
TTTAGTGGAC	0.999
CAATTAGCAA	2.01
GGCACCATGG	0.984

Sequence	switch fluorescence ratio
TTGCTACTA	1.06
TTGACTACCG	0.958
ACCATACTG	1.44
AGGGCCTCTG	1.04
GACACGTTTG	0.95
ATCTTTTAT	1.01
GTATGTGCAG	1.03
CGCACTTTG	1.04
GGACACTTAT	1.05
AGTATCAGTC	0.955
CCAACCAAAT	1.03
AGATTACACG	1.01
GACTGCACTT	1.37
ACATACGTTG	1.29
GTTAACGGTC	1.02
AAATAGAGGG	1.02
CTACGATAGG	1.04
ATTTCTGTAT	1.02
ACATGGGTCG	0.962
